# Test results as given in the supplement of paper PMC8728848.
# The list shows a part of the results.
# B1: ConA (Canavalia ensiformis), P02866 (protein)
# chain: MAISKKSSLFLPIFTFITMFLMVVNKVSSSTHETNALHFMFNQFSKDQKDLILQGDATTGTDGNLELTRVSSNGSPQGSSVGRALFYAPVHIWESSAVVASFEATFTFLIKSPDSHPADGIAFFISNIDSSIPSGSTGRLLGLFPDANVIRNSTTIDFNAAYNADTIVAVELDTYPNTDIGDPSYPHIGIDIKSVRSKKTAKWNMQNGKVGTAHIIYNSVDKRLSAVVSYPNADSATVSYDVDLDNVLPEWVRVGLSASTGLYKETNTILSWSFTSKLKSNEIPDIATVV
# Columns and labels:
# Assay in all cases: glycan array binding signal (z-score within array); higher = stronger binding
# Conditions in all cases: glycan notation: IUPAC condensed, linker removed
# [1] = molecular target: GalNAc(a1-3)GalNAc(a1-3)Gal(a1-4)Gal(b1-4)GlcNAc
# Outline: (§1)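 The Consortium for Functional Glycomics database supplied 3228 glycan arrays, of which those lacking an available protein sequence were dropped. The binding signal, a within-array Z-score, was averaged across arrays of the same protein sequence and across linkers. Negative scores can be read as non-binding.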
# [2] = molecular target: GalNAc(a1-3)GalNAc(b1-3)Gal(a1-4)Gal(b1-4)Glc
# Outline: as §1
# [3] = molecular target: GalNAc(a1-3)GalNAc(b1-3)Gal(a1-4)Gal(b1-4)GlcNAc
# Outline: as §1
# [4] = molecular target: GalNAc(b1-3)Gal
# Outline: as §1
# [5] = molecular target: GalNAc(b1-3)Gal(a1-4)Gal(b1-4)GlcNAc
# Outline: as §1
# [6] = molecular target: GalNAc(b1-3)Gal(a1-4)Gal(b1-4)GlcNAc(b1-3)Gal(b1-4)Glc
# Outline: as §1
# [7] = molecular target: GalNAc(b1-3)Gal(a1-6)Gal(b1-4)Glc
# Outline: as §1
# [8] = molecular target: GalNAc(b1-3)GalNAc
# Outline: as §1
# [9] = molecular target: GalNAc(b1-4)Gal(b1-4)Glc
# Outline: as §1
# [10] = molecular target: GalNAc(b1-4)GlcNAc
# Outline: as §1
# [11] = molecular target: GalNAc(b1-4)GlcNAc(b1-2)Man(a1-3)[GalNAc(b1-4)GlcNAc(b1-2)Man(a1-6)]Man(b1-4)GlcNAc(b1-4)GlcNAc
# Outline: as §1
# [12] = molecular target: GalNAc(b1-6)GalNAc
# Outline: as §1
# [13] = molecular target: Glc(a1-4)Glc
# Outline: as §1
# [14] = molecular target: Glc(a1-4)Glc(a1-4)Glc(a1-4)Glc
# Outline: as §1
# [15] = molecular target: Glc(a1-6)Glc(a1-6)Glc
# Outline: as §1
# [16] = molecular target: Glc(a1-6)Glc(a1-6)Glc(a1-6)Glc
# Outline: as §1
# [17] = molecular target: Glc(b1-4)Glc
# Outline: as §1
# [18] = molecular target: Glc(b1-6)Glc
# Outline: as §1
# [19] = molecular target: GlcA(b1-3)Gal
# Outline: as §1
# [20] = molecular target: GlcA(b1-3)GlcNAc
# Outline: as §1
# [21] = molecular target: GlcA(b1-6)Gal
# Outline: as §1
# [22] = molecular target: GlcNAc(a1-3)Gal(b1-4)GlcNAc
# Outline: as §1
# [23] = molecular target: GlcNAc(a1-4)Gal(b1-3)GlcNAc
# Outline: as §1
# [24] = molecular target: GlcNAc(a1-4)Gal(b1-4)GalNAc
# Outline: as §1
# [25] = molecular target: GlcNAc(a1-4)Gal(b1-4)GlcNAc
# Outline: as §1
# [26] = molecular target: GlcNAc(a1-4)Gal(b1-4)GlcNAc(b1-3)Gal(b1-4)Glc
# Outline: as §1
# [27] = molecular target: GlcNAc(a1-4)Gal(b1-4)GlcNAc(b1-3)Gal(b1-4)GlcNAc
# Outline: as §1
# [28] = molecular target: GlcNAc(a1-4)Gal(b1-4)GlcNAc(b1-3)Gal(b1-4)GlcNAc(b1-3)Gal(b1-4)GlcNAc
# Outline: as §1
# [29] = molecular target: GlcNAc(a1-4)Gal(b1-4)GlcNAc(b1-3)Gal(b1-4)[Fuc(a1-3)]GlcNAc(b1-3)Gal(b1-4)[Fuc(a1-3)]GlcNAc
# Outline: as §1
# [30] = molecular target: GlcNAc(a1-6)Gal(b1-4)GlcNAc
# Outline: as §1
# [31] = molecular target: GlcNAc(b1-2)Gal(b1-3)GalNAc
# Outline: as §1
# [32] = molecular target: GlcNAc(b1-2)Man(a1-3)[GlcNAc(b1-2)Man(a1-6)]Man(b1-4)GlcNAc(b1-4)GlcNAc
# Outline: as §1
# [33] = molecular target: GlcNAc(b1-2)Man(a1-3)[GlcNAc(b1-2)Man(a1-6)]Man(b1-4)GlcNAc(b1-4)[Fuc(a1-6)]GlcNAc
# Outline: as §1
# [34] = molecular target: GlcNAc(b1-2)Man(a1-3)[GlcNAc(b1-4)][GlcNAc(b1-2)Man(a1-6)]Man(b1-4)GlcNAc(b1-4)GlcNAc
# Outline: as §1
# [35] = molecular target: GlcNAc(b1-2)[GlcNAc(b1-4)]Man(a1-3)[GlcNAc(b1-2)Man(a1-6)]Man(b1-4)GlcNAc(b1-4)GlcNAc
# Outline: as §1
# [36] = molecular target: GlcNAc(b1-2)[GlcNAc(b1-4)]Man(a1-3)[GlcNAc(b1-4)][GlcNAc(b1-2)Man(a1-6)]Man(b1-4)GlcNAc(b1-4)GlcNAc
# Outline: as §1
# [37] = molecular target: GlcNAc(b1-2)[GlcNAc(b1-4)]Man(a1-3)[GlcNAc(b1-4)][GlcNAc(b1-2)[GlcNAc(b1-6)]Man(a1-6)]Man(b1-4)GlcNAc(b1-4)GlcNAc
# Outline: as §1
# [38] = molecular target: GlcNAc(b1-2)[GlcNAc(b1-6)]Man(a1-6)[GlcNAc(b1-2)Man(a1-3)]Man(b1-4)GlcNAc(b1-4)GlcNAc
# Outline: as §1
binder,measurement,setting,value
B1,glycan array binding signal (z-score),[1],-0.224
same,glycan array binding signal (z-score),[2],-0.201
same,glycan array binding signal (z-score),[3],-0.203
same,glycan array binding signal (z-score),[4],-0.229
same,glycan array binding signal (z-score),[5],-0.284
same,glycan array binding signal (z-score),[6],-0.252
same,glycan array binding signal (z-score),[7],-0.234
same,glycan array binding signal (z-score),[8],-0.281
same,glycan array binding signal (z-score),[9],-0.193
same,glycan array binding signal (z-score),[10],-0.264
same,glycan array binding signal (z-score),[11],-0.123
same,glycan array binding signal (z-score),[12],-0.234
same,glycan array binding signal (z-score),[13],0.407
same,glycan array binding signal (z-score),[14],-0.192
same,glycan array binding signal (z-score),[15],0.334
same,glycan array binding signal (z-score),[16],-0.21
same,glycan array binding signal (z-score),[17],-0.158
same,glycan array binding signal (z-score),[18],-0.286
same,glycan array binding signal (z-score),[19],-0.293
same,glycan array binding signal (z-score),[20],0.292
same,glycan array binding signal (z-score),[21],-0.182
same,glycan array binding signal (z-score),[22],-0.258
same,glycan array binding signal (z-score),[23],-0.224
same,glycan array binding signal (z-score),[24],-0.232
same,glycan array binding signal (z-score),[25],-0.086
same,glycan array binding signal (z-score),[26],-0.219
same,glycan array binding signal (z-score),[27],-0.049
same,glycan array binding signal (z-score),[28],-0.156
same,glycan array binding signal (z-score),[29],0.053
same,glycan array binding signal (z-score),[30],-0.285
same,glycan array binding signal (z-score),[31],-0.286
same,glycan array binding signal (z-score),[32],1.61
same,glycan array binding signal (z-score),[33],0.102
same,glycan array binding signal (z-score),[34],-0.108
same,glycan array binding signal (z-score),[35],-0.175
same,glycan array binding signal (z-score),[36],-0.281
same,glycan array binding signal (z-score),[37],-0.227
same,glycan array binding signal (z-score),[38],-0.183
